# Data as given in publication PMC7179434, “1,2,4-Triazolo[1,5-a]pyrimidines as a Novel Class of Inhibitors of the HIV-1 Reverse Transcriptase-Associated Ribonuclease H Activity” (Molecules, 2020).
# Experiments:
# [1] = tested on: Trp535Ala RT RNase H; test: biochemical; conditions: Trp535Ala mutant vs wt RNase H
# Experimental: (§1) HIV RT-associated RNase H activity was measured as described in 100 µL reaction volume containing 50 mM Tris-HCl buffer pH 7.8, 6 mM MgCl2, 1 mM dithiothreitol (DTT), 80 mM KCl, 0.25 µM hybrid RNA/DNA 5′-[…] -Fluorescin-3′ (HPLC, dry, QC: Mass Check) (available from Metabion International AG, Planegg/Steinkirchen, Germany) 5′-Dabcyl-[…] -3′ (HPLC, dry, QC: Mass Check) and 20 ng of wt RT or 700ng of Trp535Ala RT according to a linear range of dose-response curve.
# [2] = molecular target: Trp535Ala RT RNase H (Human immunodeficiency virus type 1 group M subtype B, UniProt P03366, W1134A); test: biochemical
# Experimental: as §1
structure (smiles),measurement,setting,value
"Cc1cc(-c2ccccc2)n2nc(C(=O)Nc3ccc(O)c(O)c3)nc2n1 [Compound 18g, N-(3,4-Dihydroxyphenyl)-5-methyl-7-phenyl-[1,2,4]triazolo[1,5-a]pyrimidine-2-carboxamide]","reduction of inhibitory potency, fold of difference",[1],> 244 fold
same,IC50,[2],> 100 µM
